The inhibition is the drop in the measured response relative to a control, in per cent.

This assay deals with Mtb FDTS (Mycobacterium tuberculosis, UniProt P9WG57). The experiment in a line: Mtb FDTS NADPH oxidation assay. It counts as biochemical. As to conditions: read-out: inhibition of NADPH oxidation activity of Mtb FDTS.
Sequence of UniProt P9WG57 (P9WG57 whole entry): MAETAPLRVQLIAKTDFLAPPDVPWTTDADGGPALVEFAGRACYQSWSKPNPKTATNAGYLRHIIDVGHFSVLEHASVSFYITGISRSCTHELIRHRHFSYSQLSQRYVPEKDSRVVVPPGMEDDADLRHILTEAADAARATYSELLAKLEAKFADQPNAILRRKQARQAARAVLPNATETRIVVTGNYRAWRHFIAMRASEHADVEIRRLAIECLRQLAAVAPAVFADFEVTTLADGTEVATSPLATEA

In the case of `CN(Cc1cnc2nc(N)nc(N)c2n1)c1ccc(C(=O)N[C@@H](CCC(=O)O)C(=O)O)cc1` [MTX, Methotrexate], the inhibition at 200 µM was about 50%.

(Values after publication PMC6588435 (Cell chemical biology, 2019).)
